PubChem BioAssay AID485341 (National Center for Advancing Translational Sciences (NCATS), 2010)
Screen size: about 330,000 compounds; about 1,700 (0.52%) were called active. Inconclusive means that the source gave no clear call. Such entries were picked first, then a sample of the others. Calls come from the whole dose curve; as a rule, active = well fitted inhibition curve with a large enough effect; inconclusive = small, poorly fitted or top-dose-only effect; inactive = no such curve, though single readings can be large or run the other way. A potency beside an inconclusive call is a rough fit, not a confirmed value.

These compounds were tested against Beta-lactamase (Escherichia coli (strain K12)) (UniProt P00811) (assay: qHTS Inhibitors of AmpC Beta-Lactamase (assay without detergent)). Details: AmpC nitrocefin hydrolysis, absorbance 480 nm, 0.0001% Triton; activity change, negative = inhibition: at 57.1 µM (top of the series) unless noted.
Sequence of UniProt P00811 (P00811 whole entry, looked up): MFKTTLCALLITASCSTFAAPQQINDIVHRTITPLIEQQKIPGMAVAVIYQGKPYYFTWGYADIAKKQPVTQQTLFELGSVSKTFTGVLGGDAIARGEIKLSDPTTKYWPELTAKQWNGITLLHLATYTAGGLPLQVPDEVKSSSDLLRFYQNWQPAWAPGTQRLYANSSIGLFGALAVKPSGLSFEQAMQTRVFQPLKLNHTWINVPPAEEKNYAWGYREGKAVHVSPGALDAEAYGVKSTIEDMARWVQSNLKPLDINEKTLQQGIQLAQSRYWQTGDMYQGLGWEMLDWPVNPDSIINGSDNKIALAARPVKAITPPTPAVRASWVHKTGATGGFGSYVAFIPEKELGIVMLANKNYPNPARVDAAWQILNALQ
Experimental: NIH Molecular Libraries Probe Production Network [MLPCN] NIH Chemical Genomics Center [NCGC] Assay Provider: Professor Brian Shoichet, UCSF Assay Overview: This aggregation profiling approach exploits the sensitivity of aggregate formation to detergent. Inhibition of b-lactamase is measured in the presence and absence of 0.01% Triton X-100. This particular assay had the prescence of 0.01% Triton X-100. See Pubchem assay "Promiscuous and Specific Inhibitors of AmpC Beta-Lactamase (assay without detergent)" for related screen. Compounds that inhibit only in the absence of detergent are considered likely promiscuous aggregators. A screen of 1,030 compounds was performed in Brian Shoichet's lab in 96-well format. AmpC activity was measured by following the absorbance at 480 nm. Nitrocefin is a chromogenic substrate: while nitrocefin is yellow (lmax 390 nm), the product of its hydrolysis is red (lmax 486 nm, 17,000 M-1). AmpC beta lactamase was provided by Shoichet Lab, UCSF.
Buffer: 20 mM phosphate buffer, pH 7.0 Triton X-100: No Detergent screen: 0.0001%, Detergent screen: 0.01%. Reagents/Controls: Buffer in columns 3 and 4 as negative control (no enzyme). 5.3 nM AmpC in columns 1, 2, 5-48. Titration of UCSF compound 9 control (from 10 mM, then 1:2) pin-transferred to column 2. Column 1 is neutral (100% activity). Assay Steps: Six uL of reagents were dispensed to 1536-well Greiner black clear bottom plates. Compounds and controls (23 nL) were transferred via Kalypsys PinTool. The plates were incubated for 15 min at room temperature, and then 2 uL of 800 uM solution of nitrocefin was added to start the reaction. The plates were immediately transferred to and read every 20 seconds for 4 min on ViewLux (Perkin-Elmer) High-throughput CCD imager using 480 nm absorbance protocol. During dispense, reagent bottles were kept submerged into 4 deg C water bath. Keywords: NIH Roadmap, MLSCN, MLI, MLSMR, qHTS, NCGC, AmpC Beta-Lactamase, Aggregation
Note: nearly all actives have a fitted effect of over 20% in size.
Potency is the fitted concentration of half-maximal effect; tags give direction and shape of the fitted curve.

Row | SMILES | activity change, negative = inhibition | Potency
1 | CCC(=O)Nc1ccc(NC(=O)C23CC4CC(CC(C4)C2)C3)cn1 | inactive: 19.8% | 
2 | O=C(COc1cccc(F)c1)Oc1ccc(C(=O)c2ccccc2)cc1 |  | inconclusive: 39.8 µM [inhibitor, single point]
3 | O=c1c2cc(-c3ccccc3)sc2ncn1-n1cccc1 | inactive: -9.82% | 
4 | COc1ccc(NS(=O)(=O)c2cc(C)ccc2NC(=O)c2cc(C)oc2C)cc1 |  | inconclusive: 0.631 µM [inhibitor, full curve, poor fit]
5 | Cn1c(=O)c2c([nH]c(=S)n2CCCc2ccccc2)n(C)c1=O | inactive: 24.3% | 
6 | Cc1ccc(NC(=O)CSc2nnnn2C2CCCC2)cc1S(=O)(=O)N1CCOCC1 | inactive: -5.89% | 
7 | C[C@H]1COC2=C1C(=O)C(=O)c1c2ccc2c1CCCC2(C)C |  | inconclusive: 2.51 µM [inhibitor, partial curve, poor fit]
8 | COc1ccc(S(=O)(=O)Nc2ccccn2)cc1OC |  | inconclusive: 5.01 µM [inhibitor, single point]
9 | COc1ccc(-c2cccc(NC(=O)c3ccco3)c2)nn1 |  | inconclusive: 28.2 µM [inhibitor, single point]
10 | CSc1nc(Oc2ccc(Cl)cc2)c2sccc2n1 |  | inconclusive: 6.31 µM [inhibitor, single point]
11 | Cc1ccc(NC2=C(NC(=O)c3ccccc3)C(=O)c3ccccc3C2=O)cc1Cl |  | active: 20 µM
12 | Cn1c(N2C(=O)CC(Cc3ccccc3)C2=O)nc2ccccc21 (stereo not drawn) | inactive: -18.5% | 
13 | Cc1cccc(NC(=O)CSc2nnc(-c3ccco3)c(-c3ccco3)n2)c1 |  | active: 15.8 µM
14 | CC(=O)Nc1sc(C)c(C)c1C(=O)OCC(=O)N(CCC#N)c1cc(C)cc(C)c1 | inactive: 1.01% | 
15 | Nn1c(SCC(=O)Nc2ccc(F)cc2)nnc1-c1cccnc1 |  | inconclusive: 0.141 µM [inhibitor, full curve, poor fit]
16 | Cc1ccc(/C=N/NC(=O)c2ccco2)cc1 | inactive: -9.14% | 
17 | O=C(CNc1ccccc1)N/N=C/c1cc([N+](=O)[O-])ccc1N1CCCC1 |  | active: 7.94 µM
18 | Cn1cc(S(=O)(=O)N2CCN(c3ccccc3)CC2)c(=O)n(C)c1=O |  | active: 39.8 µM
19 | Cc1c(C(=O)O)cnc2cc(-c3ccc(Cl)cc3)nn12 |  | inconclusive: 4.47 µM [inhibitor, full curve, poor fit]
20 | CCc1nn2c(=O)cc(N3CCN(c4cc(C)nc5ccccc45)CC3)nc2s1 |  | inconclusive: 2.51 µM [inhibitor, partial curve, poor fit]
21 | Cc1ccc(S(=O)(=O)C2(C(=O)Nc3cccc(F)c3)CC2)cc1 |  | active: 2.82 µM
22 | Cc1ccn(CCC(=O)NC2CCCc3c2cnn3-c2cccc(C)c2C)n1 (stereo not drawn) | inactive: 59.6% | 
23 | CC(NC(=O)c1ccccc1)C(c1cccs1)N1CCOCC1 (stereo not drawn) |  | inconclusive: 0.501 µM [inhibitor, full curve, poor fit]
24 | S=c1[nH]nc(COc2ccccc2)n1/N=C/C=C/c1ccco1 |  | active: 15.8 µM
25 | COc1ccc(-c2nc3cnccn3c2Nc2ccc(C)cc2)cc1 |  | inconclusive: 44.7 µM [inhibitor, partial curve, poor fit]

Row | SMILES | activity change, negative = inhibition | Potency
26 | COc1ccc(C=O)cc1OS(=O)(=O)c1ccc(NC(C)=O)cc1 | inactive: -12.5% | 
27 | O=C(NCCc1csc(-c2cccnc2)n1)c1ccccc1 |  | active: 1.41 µM
28 | CCN(C(=O)CSc1nc2ccccc2c(=O)n1Cc1ccc(C)cc1)C1CCS(=O)(=O)C1 (stereo not drawn) |  | inconclusive: 35.5 µM [inhibitor, single point]
29 | CSc1ccccc1NC(=O)Nc1cccc(Cl)c1Cl | inactive: -49.7% | 
30 | COc1cc(OC)c(OC)cc1/C=C/C(=O)c1ccc(NS(=O)(=O)c2ccc(C)cc2)cc1 |  | inconclusive: 3.55 µM [inhibitor, single point]
31 | Cc1ccc(S(=O)(=O)Nc2ccc(O)c3ccccc23)c(C)c1 |  | inconclusive: 15.8 µM [inhibitor, partial curve]
32 | CC(=O)c1ccc(NC(=O)c2noc3c2CCC3)cc1 |  | inconclusive: 31.6 µM [inhibitor, single point]
33 | COc1cc(/C=C/C(=O)OCC(=O)Nc2sc3c(c2C#N)CCC(C)C3)ccc1OCC#N (stereo not drawn) |  | inconclusive: 2.82 µM [inhibitor, single point]
34 | C=CCn1c(O)c(/C=C2\C=NN=C2c2ccccc2)sc1=S |  | inconclusive: 7.08 µM [inhibitor, partial curve]
35 | Cc1ccc2nc(NNC(=O)c3ccc(S(=O)(=O)N4CCc5ccccc5C4)cc3)sc2c1 |  | inconclusive: 1.12 µM [inhibitor, full curve, poor fit]
36 | CCn1c(SCC(=O)Nc2nccs2)nnc1-c1ccccc1 |  | inconclusive: 0.631 µM [inhibitor, partial curve, poor fit]
37 | COc1cccc(CN(C)C(=O)CNC(=O)c2cccs2)c1OC |  | inconclusive: 28.2 µM [inhibitor, single point]
38 | CCC(C)(NC(=O)c1ccc(=O)[nH]c1)C(=O)NC1CCCC1 (stereo not drawn) |  | active: 2.82 µM
39 | COCC(=O)N(Cc1cc2cc(C)ccc2[nH]c1=O)c1ccc(C)c(C)c1 | inactive: 21.2% | 
40 | CN(Cc1nc2ccccc2n1C)S(=O)(=O)c1ccc(F)cc1 |  | inconclusive: 5.01 µM [inhibitor, single point]
41 | CCN(CC)S(=O)(=O)c1ccc(O)c(NC(=O)c2ccc(N3CCOCC3)c([N+](=O)[O-])c2)c1 |  | active: 20 µM
42 | COC(=O)c1cccc(Cn2c(Cl)c(/C=N/Nc3ccccc3C)sc2=O)c1 |  | active: 31.6 µM
43 | CCCCC(=O)Nc1sc2c(c1-c1nc3ccccc3s1)CCN(C(C)=O)C2 |  | active: 0.501 µM
44 | COc1ccccc1-n1c(SCC(=O)c2ccc(O)cc2O)nc2cc([N+](=O)[O-])ccc21 |  | inconclusive: 4.47 µM [inhibitor, full curve, poor fit]
45 | COc1ccc(S(=O)(=O)NCC(c2ccc3c(c2)OCO3)N2CCN(C)CC2)cc1OC (stereo not drawn) |  | inconclusive: 39.8 µM [inhibitor, single point]
46 | O=C(COC(=O)c1cc[n+]([O-])cc1)Nc1ccc(SC(F)F)cc1 |  | inconclusive: 28.2 µM [inhibitor, single point]
47 | CC(C)CC(NS(=O)(=O)c1ccccc1)C(=O)O (stereo not drawn) | inactive: -2.65% | 
48 | CC1Cc2ccccc2N1C(=S)NC(=O)c1cccc(Br)c1 (stereo not drawn) |  | inconclusive: 25.1 µM [inhibitor, single point]
49 | Cc1ccc(NC(=O)COC(=O)/C(=C/c2cccs2)c2cccs2)cc1S(=O)(=O)N(C)C |  | inconclusive: 2.82 µM [inhibitor, full curve, poor fit]
50 | O=C(N/N=C(/CC(=O)c1cccs1)C(F)(F)F)c1ccc(O)cc1 |  | active: 7.94 µM

Row | SMILES | activity change, negative = inhibition | Potency
51 | CCc1ccccc1NC(=O)CN(c1cccc(OC)c1)S(C)(=O)=O |  | inconclusive: 6.31 µM [inhibitor, single point]
52 | O=C(Cn1cc2c(n1)CCCC2)NCc1ccccn1 |  | active: 3.55 µM
53 | O=C1NC(=S)N/C1=C/c1ccc(-c2c(Br)cc([N+](=O)[O-])cc2Br)o1 |  | inconclusive: 0.562 µM [inhibitor, partial curve, poor fit]
54 | CC(=O)Nc1ccc2c(c1)C(=O)c1ccccc1C2=O | inactive: -21.6% | 
55 | O=C(Nc1cccc(Cl)c1)c1cccc(Oc2ccc([N+](=O)[O-])cc2Cl)c1 |  | inconclusive: 35.5 µM [inhibitor, single point]
56 | COc1cc(C(=O)NS(=O)(=O)c2ccccc2C)ccc1Cc1cn(C)c2ccc(NC(=O)OC3CCCC3)cc12 |  | inconclusive: 0.251 µM [inhibitor, full curve, poor fit]
57 | O=C1CCOc2cc(OCc3ccccc3)ccc21 | inactive: 1.69% | 
58 | CCCC(C)NC(=O)COc1ccc(S(=O)(=O)c2ccc(OCC(=O)NC(C)CCC)cc2)cc1 (stereo not drawn) | inactive: 196% | 
59 | Cn1c(Cl)c(/C=N/OC(=O)c2ccccc2Cl)c2ccccc21 |  | inconclusive: 6.31 µM [inhibitor, single point]
60 | COC(=O)CS(=O)(=O)c1ccsc1C(=O)Nc1ccc(F)c(F)c1 |  | inconclusive: 6.31 µM [inhibitor, single point]
61 | CN(C)/C=C(/C(=O)c1ccc(F)cc1)S(=O)(=O)c1ccc(F)cc1 |  | active: 12.6 µM
62 | Clc1ccc(-c2cc3ccccc3nc2N2CCCC2)cc1 |  | inconclusive: 0.126 µM [inhibitor, full curve, poor fit]
63 | COc1cccc(CC2(CO)CCN(Cc3cnc(N4CCOCC4)s3)CC2)c1 | inactive: 16.9% | 
64 | CC(/C=N/NC(=O)Cc1cc(=O)[nH][nH]1)=C\c1ccccc1 | inactive: -41.1% | 
65 | CCOc1cc(/C=C/c2nc3cc(C)c(C)cc3s2)ccc1OCC(=O)N1CCOCC1 | inactive: 195% | 
66 | O=C(c1cc2ccccc2cc1O)N1CCN(c2ccc([N+](=O)[O-])cc2)CC1 |  | inconclusive: 39.8 µM [inhibitor, single point]
67 | COc1ccc(NC(=S)Nc2ccc3nccnc3c2)cc1 | inactive: -17.7% | 
68 | Cc1cc(Br)c2c(c1)=C(c1sc(N3CCCCCC3)nc1O)C(=O)N=2 |  | inconclusive: 0.316 µM [inhibitor, full curve, poor fit]
69 | c1ccc(C2CC(c3ccccc3)n3c(nc4ccccc43)N2)cc1 (stereo not drawn) |  | inconclusive: 10 µM [inhibitor, partial curve]
70 | COc1ccc(/C=N/NC(=O)c2cccc([N+](=O)[O-])c2)cc1OC | inactive: -42.2% | 
71 | Cc1ccc(N(Cc2cc3ccccc3[nH]c2=O)C(=O)c2ccco2)c(C)c1 | inactive: -39.8% | 
72 | COc1cccc(OC)c1C(=O)N1CCN(Cc2ccncc2)CC1 |  | inconclusive: 0.141 µM [inhibitor, full curve, poor fit]
73 | CN(C(=O)CC1C(=O)NCCN1Cc1ccoc1)C1CCOCC1 (stereo not drawn) | inactive: -15.4% | 
